# Measurements: ChEMBL document CHEMBL1156829
# In all, about 5,400 compounds were measured (“IFI”: median about 2, highest 2% from about 22 on). The list shows a part of the results.
# Assay: NOVARTIS: Inhibition Frequency Index (IFI) - the number of HTS assays where a compound showed > 50% inhibition/induction, expressed as a percentage of the number of assays in which the compound was tested.
# Assay type: functional
row,Compound,IFI
1,Oc1ccc(-c2ccc3c(c2)OCO3)cc1CNCC1(N2CCCCC2)CCCCC1,0.855%
2,Cc1ccc(OCC(=O)Nc2cccc(-c3nc4ncccc4o3)c2)cc1C,0%
3,COCCOC(=O)C1=C(C)NC2=C(C(=O)CC(c3ccc(OC)c(OC)c3)C2)C1c1ccc(F)cc1 (stereo not given),7.32%
4,CN(C)CCCNc1c2ccccc2nc2ccccc12,0%
5,CCN1C(=O)c2ccccc2Sc2ccc(NC(=O)NCCCOC(C)C)cc21,2.38%
6,CN(C)CCn1cnc2sc3c(c2c1=O)CCC(NCc1cccc(Cl)c1)C3 (stereo not given),1.96%
7,Cc1nc2ncccn2c1-c1csc(Nc2ccccn2)n1,0%
8,Nc1c(C(=O)Nc2ccc(F)cc2)sc2nc3c(c(-c4cccs4)c12)CCCC3,3.53%
9,Cc1ccc2cc3c(N)c4cccc(C)c4nc3nc2c1,12.8%
10,CCOC(=O)N1CCC(n2c(SCC(=O)N3CCCCCC3)nc3ccccc3c2=O)CC1,0%
11,CN1CCN=C1c1ccc(NC(=O)c2ccc(C(=O)Nc3ccc(C4=NCCN4C)cc3)c([N+](=O)[O-])c2)cc1,10.8%
12,COc1ccc(-c2cnnc(NN=Cc3ccc([N+](=O)[O-])o3)n2)cc1,0%
13,COc1cc(NC(C)CCCN(Cc2ccc(OC)c(OC)c2)C(=O)NC2CCCCC2)c2ncccc2c1 (stereo not given),3.19%
14,Cn1c(SCc2cccc([N+](=O)[O-])c2)nc2c(c1=O)SCC2,0%
15,CN1CCc2c(sc3c2C(=O)NC(c2ccc(O)cc2)N3)C1 (stereo not given),0%
16,O=C(NC(CN1CCCC1)c1ccccc1)C1CCCCN1S(=O)(=O)c1ccc(Cl)cc1 (stereo not given),0.971%
17,c1cncc(-c2cc(NCCCn3ccnc3)nc(-c3ccncc3)n2)c1,0%
18,CCOc1ccc(/C=C2/SC(=Nc3ccccc3)NC2=O)cc1OC,3.45%
19,O=C(Nc1ccc(-c2nc3ccccc3[nH]2)cc1)c1ccc(Cl)c(Cl)c1,6.82%
20,Cc1cccn2c(NCc3ccccc3)c(-c3ccccc3OC(=O)C(C)Cl)nc12 (stereo not given),4.67%
21,CCCN1CCc2c(sc3nc(SCC(=O)OC)nc(N)c23)C1,8%
22,CCOc1ccc(Nc2nc(NCc3ccco3)c3ccccc3n2)cc1,3.85%

row,Compound,IFI
1,CC(CC(=O)Oc1ccccc1-c1nc2ccccn2c1NC(C)(C)CC(C)(C)C)CC(C)(C)C (stereo not given),2.83%
2,COc1ccc(SC2CCN(C3CCOCC3)CC2)cc1,1.39%
3,COC(=O)c1cn([C@@H]2C[C@@H](C(=O)NCc3cccc(C(F)(F)F)c3)N(C3CCN(Cc4ccccc4)CC3)C2)nn1,1.75%
4,CC1CN(C)C(C)CC1=NOC(=O)c1ccc(Cl)c(Cl)c1 (stereo not given),0%
5,Cc1cc(C)cc(NC2=C(N)C(=O)c3ccccc3C2=O)c1,0%
6,Clc1ccc2c(NC3CCCCCCC3)ccnc2c1,1.27%
7,COc1ccc(C2CC(c3cccs3)=NN2C(=O)CSc2nnc(CNC(=O)c3cccs3)n2-c2cc(C)ccc2C)cc1 (stereo not given),2.41%
8,COC(CNC(=O)c1c[nH]c2ccc(S(=O)(=O)N3CCN(C)CC3)cc2c1=O)OC,0%
9,COc1cc(OC)cc(C(=O)N2CCN(Cc3cccc(Br)c3)CC2)c1,0%
10,CC(NCCC(c1ccccc1)c1ccccc1O)c1ccccc1 (stereo not given),0%
11,COc1ccc(OC)c(C(=O)c2oc3ccccc3c2NC(=O)CCl)c1,0%
12,Cn1c(=O)[nH]c2c(c1=O)n(C)c(=O)n2C,1.4%
13,CC1CCC(C(C)(C)Oc2ccc(NC(=O)c3ccccc3)cc2)CC1 (stereo not given),0.833%
14,O=C(NC(=S)Nc1ccc(-c2nc3ccccc3s2)cc1)c1ccc(S(=O)(=O)N2CCCC2)cc1,0%
15,Clc1cccc(CCNC2CCN(CCc3ccccc3)CC2)c1,2.34%
16,COc1cc2c(OC3OCC(OC)C(OC)C3O)c3c(c(-c4ccc5c(c4)OCO5)c2cc1OC)C(=O)OC3 (stereo not given),27.7%
17,CC(C)(C)c1ccc(Cn2nnc3c(O)nc(C4CCN(C(=O)c5ccccc5)CC4)nc32)cc1,10.8%
18,COc1ccc(NC2=C(c3ccc(OC)cc3)C(=O)c3ccccc32)cc1,4.76%
19,CCCCOC(=O)C1=C(C)NC2=C(C(=O)CCC2)C1c1ccc(Cl)c(Cl)c1 (stereo not given),2.3%
20,O=C(NC1CCN(Cc2ccccc2)CC1)c1cc(-c2ccc(F)cc2)cc(-n2cnnn2)c1,3.03%
21,COc1cccc(C(=O)NC(c2ccc(Cl)cc2)c2cc(Cl)c3cccnc3c2O)c1 (stereo not given),0%
22,CN(Cc1ccccc1)C(=O)CSc1nc(NCc2ccccc2)c2ccccc2n1,0%

row,Compound,IFI
1,CCOc1ccc(NCc2ccc(O)c3ncccc23)cc1,13%
2,CC1(C)CC(=O)C2=C(C1)Nc1ccccc1N(C(=O)Cc1ccccc1)C2c1ccc([N+](=O)[O-])s1 (stereo not given),1.19%
3,Nc1ncc(Br)cc1S(=O)(=O)NCCC(=O)N1CC=C(c2ccccc2)CC1,1.96%
4,CCOC(=O)CCS(=O)(=O)c1ccc(Br)cc1,1.54%
5,c1ccc(CNc2nc(-c3ccccn3)nnc2-c2ccccc2)cc1,15.4%
6,O=C(COC(=O)c1ccccc1O)c1ccc(Br)cc1,4.65%
7,O=C(C1CCN(S(=O)(=O)c2cccc3nonc23)CC1)N1CCCc2ccccc21,1.85%
8,CCN(CC)c1ccc(/C=C(/C#N)c2nc3ccccc3[nH]2)o1,7.69%
9,CCN(CC)C(=O)c1cn(C2CCN(Cc3ccco3)CC2)nn1,1.77%
10,Clc1cccc(C(Nc2cccnc2)(c2ccccc2)c2ccccc2)c1,0%
11,COC(=O)CNC(c1ccccc1Cl)c1cc(Br)ccc1NS(=O)(=O)c1ccc(C)cc1 (stereo not given),0%
12,COc1cc(Br)c(C2CC(=O)Nc3ccc4ccccc4c32)cc1OC (stereo not given),0%
13,CCCCC(=O)Oc1ccccc1-c1nc2ccccn2c1NC(C)(C)CC(C)(C)C,4.72%
14,CC(C)CCNC(=O)CN1C(=O)c2cccnc2Oc2ccccc21,0%
15,CCN1c2ccccc2N(C)C1(C)c1ccccc1 (stereo not given),6.56%
16,CCOC(=O)C1=C(C)NC2=C(C(=O)CC(c3ccc(OC)c(OC)c3)C2)C1c1ccc(Br)cc1 (stereo not given),4.71%
17,CCOC(=O)c1nnn(-c2nonc2N)c1-c1ccc(C)cc1,0%
18,CN(C)c1cc(NC(=O)Nc2cccc(Cl)c2)c2ccccc2n1,7.64%
19,c1ccc2c(c1)OC13CCCCC1C2NCC3 (stereo not given),0%
20,O=C(CSc1nc2cc3c(cc2c(=O)n1Cc1ccco1)OCO3)Nc1cc(C(F)(F)F)ccc1Cl,4.35%
21,Cc1cc(/C=C2/SC(=S)N(CC(=O)O)C2=O)c(C)n1-c1ccccc1,0%
